Measured values: the supplement of paper PMC8728848
Some of the results follow.

Legend:
Experiment in all cases: glycan array binding signal (z-score within array); higher = stronger binding
Conditions in all cases: glycan notation: IUPAC condensed, linker removed
Gal6S(b1-4)Glc6S = molecular target: Gal6S(b1-4)Glc6S
Summary of the method: (§1)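 Arrays were curated from the Consortium for Functional Glycomics database, 3228 in total, and kept only where the protein sequence was available. Binding is expressed as a within-array Z-score. This score was averaged across arrays of the same protein sequence at different concentrations or buffers and across linkers, and negative values can be read as non-binding.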

Gal6S(b1-4)GlcNAc = molecular target: Gal6S(b1-4)GlcNAc
Summary of the method: as §1

Gal6S(b1-4)GlcNAc6S = molecular target: Gal6S(b1-4)GlcNAc6S
Summary of the method: as §1

GalNAc(a1-3)Gal = molecular target: GalNAc(a1-3)Gal
Summary of the method: as §1

GalNAc(a1-3)GalNAc = molecular target: GalNAc(a1-3)GalNAc
Summary of the method: as §1

[1] = molecular target: GalNAc(a1-3)GalNAc(b1-3)Gal(a1-4)Gal(b1-4)Glc
Summary of the method: as §1

[2] = molecular target: GalNAc(a1-3)GalNAc(b1-3)Gal(a1-4)Gal(b1-4)GlcNAc
Summary of the method: as §1

GalNAc(b1-3)Gal = molecular target: GalNAc(b1-3)Gal
Summary of the method: as §1

[3] = molecular target: GalNAc(b1-3)Gal(a1-4)Gal(b1-4)GlcNAc
Summary of the method: as §1

[4] = molecular target: GalNAc(b1-3)Gal(a1-4)Gal(b1-4)GlcNAc(b1-3)Gal(b1-4)Glc
Summary of the method: as §1

[5] = molecular target: GalNAc(b1-3)Gal(a1-6)Gal(b1-4)Glc
Summary of the method: as §1

GalNAc(b1-3)GalNAc = molecular target: GalNAc(b1-3)GalNAc
Summary of the method: as §1

GalNAc(b1-3)GlcNAc = molecular target: GalNAc(b1-3)GlcNAc
Summary of the method: as §1

GalNAc(b1-4)Gal(b1-4)Glc = molecular target: GalNAc(b1-4)Gal(b1-4)Glc
Summary of the method: as §1

GalNAc(b1-4)GlcNAc = molecular target: GalNAc(b1-4)GlcNAc
Summary of the method: as §1

[6] = molecular target: GalNAc(b1-4)GlcNAc(b1-2)Man
Summary of the method: as §1

[7] = molecular target: GalNAc(b1-4)GlcNAc(b1-2)Man(a1-3)[GalNAc(b1-4)GlcNAc(b1-2)Man(a1-6)]Man(b1-4)GlcNAc(b1-4)GlcNAc
Summary of the method: as §1

[8] = molecular target: GalNAc(b1-4)GlcNAc(b1-3)GalNAc(b1-4)GlcNAc
Summary of the method: as §1

GalNAc(b1-4)GlcNAc6S = molecular target: GalNAc(b1-4)GlcNAc6S
Summary of the method: as §1

GalNAc(b1-6)GalNAc = molecular target: GalNAc(b1-6)GalNAc
Summary of the method: as §1

GalNAc3S(b1-4)GlcNAc = molecular target: GalNAc3S(b1-4)GlcNAc
Summary of the method: as §1

GalNAc3S(b1-4)GlcNAc3S = molecular target: GalNAc3S(b1-4)GlcNAc3S
Summary of the method: as §1

[9] = molecular target: GalNAc3S(b1-4)[Fuc(a1-3)]GlcNAc
Summary of the method: as §1

GalNAc4S6S(b1-4)GlcNAc = molecular target: GalNAc4S6S(b1-4)GlcNAc
Summary of the method: as §1

GalNAc6S(b1-4)GlcNAc = molecular target: GalNAc6S(b1-4)GlcNAc
Summary of the method: as §1

Glc(a1-4)Glc = molecular target: Glc(a1-4)Glc
Summary of the method: as §1

[10] = molecular target: Glc(a1-4)Glc(a1-4)Glc(a1-4)Glc
Summary of the method: as §1

Glc(a1-6)Glc(a1-6)Glc = molecular target: Glc(a1-6)Glc(a1-6)Glc
Summary of the method: as §1

[11] = molecular target: Glc(a1-6)Glc(a1-6)Glc(a1-6)Glc
Summary of the method: as §1

Glc(b1-4)Glc = molecular target: Glc(b1-4)Glc
Summary of the method: as §1

Glc(b1-6)Glc = molecular target: Glc(b1-6)Glc
Summary of the method: as §1

GlcA(b1-3)Gal = molecular target: GlcA(b1-3)Gal
Summary of the method: as §1

GlcA(b1-3)GlcNAc = molecular target: GlcA(b1-3)GlcNAc
Summary of the method: as §1

GlcA(b1-6)Gal = molecular target: GlcA(b1-6)Gal
Summary of the method: as §1

[12] = molecular target: GlcA3S(b1-3)Gal(b1-4)GlcNAc(b1-2)Man
Summary of the method: as §1

[13] = molecular target: GlcA3S(b1-3)Gal(b1-4)GlcNAc(b1-3)Gal(b1-4)Glc
Summary of the method: as §1

[14] = molecular target: GlcNAc(a1-3)Gal(b1-4)GlcNAc
Summary of the method: as §1

[15] = molecular target: GlcNAc(a1-4)Gal(b1-3)GlcNAc
Summary of the method: as §1

[16] = molecular target: GlcNAc(a1-4)Gal(b1-4)GalNAc
Summary of the method: as §1

[17] = molecular target: GlcNAc(a1-4)Gal(b1-4)GlcNAc
Summary of the method: as §1

[18] = molecular target: GlcNAc(a1-4)Gal(b1-4)GlcNAc(b1-3)Gal(b1-4)Glc
Summary of the method: as §1

[19] = molecular target: GlcNAc(a1-4)Gal(b1-4)GlcNAc(b1-3)Gal(b1-4)GlcNAc
Summary of the method: as §1

[20] = molecular target: GlcNAc(a1-4)Gal(b1-4)GlcNAc(b1-3)Gal(b1-4)GlcNAc(b1-3)Gal(b1-4)GlcNAc
Summary of the method: as §1

[21] = molecular target: GlcNAc(a1-4)Gal(b1-4)GlcNAc(b1-3)Gal(b1-4)[Fuc(a1-3)]GlcNAc(b1-3)Gal(b1-4)[Fuc(a1-3)]GlcNAc
Summary of the method: as §1

[22] = molecular target: GlcNAc(a1-6)Gal(b1-4)GlcNAc
Summary of the method: as §1

B1: LecB PA14 (Pseudomonas aeruginosa) (protein)
chain: MATQGVFTLPANTQFGVTAFANSAGTQTVNVQVNNETVATFTGQSTNNAIIGSKVLNSGGGGKVQILVSVNGRSSDLVSAQVILANELNFALVGSEDSTDNDYNDAVVVINWPLG
glycan array binding signal (z-score) (Gal6S(b1-4)Glc6S): -0.022 | glycan array binding signal (z-score) (Gal6S(b1-4)GlcNAc): -0.841 | glycan array binding signal (z-score) (Gal6S(b1-4)GlcNAc6S): -0.767 | glycan array binding signal (z-score) (GalNAc(a1-3)Gal): -0.201 | glycan array binding signal (z-score) (GalNAc(a1-3)GalNAc): -0.527 | glycan array binding signal (z-score) [1]: -0.195 | glycan array binding signal (z-score) [2]: -0.57 | glycan array binding signal (z-score) (GalNAc(b1-3)Gal): -0.602 | glycan array binding signal (z-score) [3]: 0.245 | glycan array binding signal (z-score) [4]: -0.248 | glycan array binding signal (z-score) [5]: -0.3 | glycan array binding signal (z-score) (GalNAc(b1-3)GalNAc): 0.151 | glycan array binding signal (z-score) (GalNAc(b1-3)GlcNAc): 0.446 | glycan array binding signal (z-score) (GalNAc(b1-4)Gal(b1-4)Glc): -0.879 | glycan array binding signal (z-score) (GalNAc(b1-4)GlcNAc): -0.772 | glycan array binding signal (z-score) [6]: -0.559 | glycan array binding signal (z-score) [7]: -0.424 | glycan array binding signal (z-score) [8]: -0.272 | glycan array binding signal (z-score) (GalNAc(b1-4)GlcNAc6S): -0.625 | glycan array binding signal (z-score) (GalNAc(b1-6)GalNAc): -0.482 | glycan array binding signal (z-score) (GalNAc3S(b1-4)GlcNAc): 0.077 | glycan array binding signal (z-score) (GalNAc3S(b1-4)GlcNAc3S): -0.53 | glycan array binding signal (z-score) [9]: 0.25 | glycan array binding signal (z-score) (GalNAc4S6S(b1-4)GlcNAc): -0.487 | glycan array binding signal (z-score) (GalNAc6S(b1-4)GlcNAc): 0.116 | glycan array binding signal (z-score) (Glc(a1-4)Glc): -0.901 | glycan array binding signal (z-score) [10]: -0.427 | glycan array binding signal (z-score) (Glc(a1-6)Glc(a1-6)Glc): -0.565 | glycan array binding signal (z-score) [11]: -0.355 | glycan array binding signal (z-score) (Glc(b1-4)Glc): -0.173 | glycan array binding signal (z-score) (Glc(b1-6)Glc): 0.04 | glycan array binding signal (z-score) (GlcA(b1-3)Gal): 0.136 | glycan array binding signal (z-score) (GlcA(b1-3)GlcNAc): -0.086 | glycan array binding signal (z-score) (GlcA(b1-6)Gal): -0.49 | glycan array binding signal (z-score) [12]: 0.52 | glycan array binding signal (z-score) [13]: -0.704 | glycan array binding signal (z-score) [14]: -0.037 | glycan array binding signal (z-score) [15]: -0.801 | glycan array binding signal (z-score) [16]: 0.482 | glycan array binding signal (z-score) [17]: -0.75 | glycan array binding signal (z-score) [18]: -0.506 | glycan array binding signal (z-score) [19]: 0.721 | glycan array binding signal (z-score) [20]: -0.119 | glycan array binding signal (z-score) [21]: 0.502 | glycan array binding signal (z-score) [22]: -0.551
